Data from PubChem BioAssay AID2147 (National Center for Advancing Translational Sciences (NCATS), 2009).
The whole screen tested about 230,000 compounds, of which about 3,600 (1.6%) were called active. Inconclusive results, whose numbers are uncertain, are shown with a selection of clear calls. Calls come from the whole dose curve; as a rule, active = well fitted inhibition curve with a large enough effect (not every such curve was filed as active); inconclusive = small, poorly fitted or top-dose-only effect, or another doubt; inactive = no such curve, though single readings can be large or run the other way. Potencies of inconclusive entries are doubtful fits and often do not repeat.

target: Lysine-specific demethylase 4E (Homo sapiens) (UniProt B2RXH2); assay: qHTS Assay for Inhibitors of Human Jumonji Domain Containing 2E (JMJD2E); settings: JMJD2E catalytic domain, FDH-coupled NADH fluorescence (FDH is formaldehyde dehydrogenase); series mostly up to 57.1 µM; activity change, negative = inhibition: at the top concentration
Note: nearly all actives have a fitted effect of over 50% in size.
Potency is the fitted concentration of half-maximal effect; tags give direction and shape of the fitted curve.
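Throughout, for activity change, negative = inhibition: 0% = wells with enzyme and -100% = buffer wells without enzyme.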

Sequence of UniProt B2RXH2 (B2RXH2 whole entry, looked up, the tested form may be a part): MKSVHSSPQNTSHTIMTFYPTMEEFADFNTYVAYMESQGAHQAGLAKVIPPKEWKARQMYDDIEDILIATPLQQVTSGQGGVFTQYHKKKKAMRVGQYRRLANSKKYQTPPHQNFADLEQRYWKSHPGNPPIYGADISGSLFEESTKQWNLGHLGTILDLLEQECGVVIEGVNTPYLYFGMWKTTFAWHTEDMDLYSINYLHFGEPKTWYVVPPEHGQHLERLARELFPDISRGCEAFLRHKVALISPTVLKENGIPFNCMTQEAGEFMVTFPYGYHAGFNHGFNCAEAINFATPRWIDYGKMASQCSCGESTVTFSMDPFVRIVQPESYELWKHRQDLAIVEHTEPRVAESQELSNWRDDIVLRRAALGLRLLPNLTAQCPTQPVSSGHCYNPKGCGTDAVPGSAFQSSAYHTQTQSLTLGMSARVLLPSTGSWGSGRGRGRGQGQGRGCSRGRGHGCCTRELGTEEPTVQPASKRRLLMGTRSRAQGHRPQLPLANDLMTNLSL

Row | Compound | Potency | activity change, negative = inhibition
1 | COC(=O)c1sccc1NC(=O)c1ccc(OC)c(OC)c1 | inconclusive: 31.6 µM [inhibitor, partial curve] | 
2 | CCOC(=O)Cc1cc(=O)n2[nH]c(C)c(-c3ccc(Cl)cc3)c2n1 | inconclusive: 25.1 µM [inhibitor, partial curve] | 
3 | COc1ccc2oc(=O)c(C(=O)N3CCCC3)cc2c1 | inconclusive: 31.6 µM [inhibitor, partial curve] | 
4 | Oc1ccccc1-c1nc2c3ccccc3c3ccccc3c2[nH]1 | inconclusive: 28.2 µM [inhibitor, partial curve] | 
5 | CCS(=O)(=O)N1N=C(c2cccc(NS(C)(=O)=O)c2)CC1c1ccc(C)cc1 (stereo not drawn) |  | inactive: -6.89%
6 | Cc1cc(N2CCCC2)nc2ccc(NC(=S)NCCCN3CCC(C)CC3)cc12 | inconclusive: 35.5 µM [inhibitor, single point] | 
7 | C1CCc2c(nnc3c2-c2nonc2CC3)C1 |  | inactive: -6.6%
8 | COc1ccc(C2C3=C(CC(C)(C)CC3=O)N(C)C3=C2C(=O)CC(C)(C)C3)cc1 | inconclusive: 14.1 µM [inhibitor, partial curve] | 
9 | COC(=O)[C@@H]1[C@@H]2C[C@H]3c4[nH]c5cc(OC)ccc5c4CCN3C[C@@H]2C[C@H](OC(=O)c2cc(OC)c(OC)c(OC)c2)[C@H]1OC | active: 10 µM | 
10 | COc1ccccc1C(=O)Nc1ccc(N2CCN(Cc3ccccc3)CC2)cc1 |  | inactive: 3.51%
11 | O=C(CCSc1ccc(Cl)cc1)N1CCCCCC1 |  | inactive: -1.15%
12 | Oc1ccc(/C=N/NC(=S)NCCN2CCOCC2)c(O)c1 | active: 35.5 µM | 
13 | COc1ccc(NC(=O)N/C=C/c2ccco2)cc1 |  | inactive: -4%
14 | Cc1cccc2cc(COC(=O)C(C)C)c(=O)[nH]c12 | inconclusive: 28.2 µM [inhibitor, single point] | 
15 | COc1ccc(-c2nnc(Nc3nc4c(OC)cccc4s3)o2)c(OC)c1 | inconclusive: 35.5 µM [inhibitor, partial curve] | 
16 | CCN1CCN(CCCN(Cc2cccs2)C(=S)Nc2ccccc2C)CC1 |  | inactive: -5.04%
17 | COc1ccc(Cl)cc1-n1c(C)cc(C(=O)O)c1C |  | inactive: 14.1%
18 | COc1ccc(OC)c(C2CC(=O)N3CN(c4ccccc4)CSC3=C2C#N)c1 (stereo not drawn) | inconclusive: 39.8 µM [inhibitor, single point] | 
19 | COc1ccc(C(=O)c2ccc(OC)c(OC)c2)cc1 |  | inactive: 2.92%
20 | O=C(NCc1ccc(F)cc1)C1CCN(c2cnccn2)CC1 | inconclusive: 25.1 µM [inhibitor, single point] | 
21 | CN(C(=O)COC(=O)c1ccc([N+](=O)[O-])cc1N)c1ccccc1 |  | inactive: 4.17%
22 | N#Cc1ccccc1NC(=O)Nc1ccc(Cl)cc1 | inconclusive: 22.4 µM [inhibitor, partial curve] | 
23 | CC(C)CSc1nc(N2CCOCC2)c2c(c1C#N)CC(C)(C)SC2 | inconclusive: 39.8 µM [inhibitor, single point] | 
24 | CCn1ccnc1CN1CCc2c([nH]c3ccccc23)C1C1CCCCC1 (stereo not drawn) | active: 28.2 µM | 

Row | Compound | Potency | activity change, negative = inhibition
25 | COc1ccc(NCC(=O)Nc2ccc(C#N)cc2)cc1Cl |  | inactive: 4.66%
26 | CC(C)Oc1cccc(C(=O)C2CCCN(Cc3ccc(Oc4ncccn4)cc3)C2)c1 (stereo not drawn) | inconclusive: 39.8 µM [inhibitor, single point] | 
27 | CCCCc1nc(NCCN2CCOCC2)c(C#N)c2c1COC(C)(C)C2 | inconclusive: 35.5 µM [inhibitor, single point] | 
28 | CCOc1ccc(-n2c(SCC(=O)Nc3ccc(Br)cc3)nc3n[nH]c(C)c3c2=N)cc1 | inconclusive: 25.1 µM [inhibitor, partial curve] | 
29 | N#Cc1c(N)n(CCNC(=O)c2cccs2)c2nc3ccccc3nc12 | inconclusive: 31.6 µM [inhibitor, partial curve] | 
30 | CC(C)Cn1nc(NC(=O)C(C)(C)C)c2cc3ccccc3nc21 | inconclusive: 35.5 µM [inhibitor, single point] | 
31 | Cc1ccc2nc(NC(=O)C3CCCN(S(=O)(=O)c4cccc5nsnc45)C3)sc2c1 (stereo not drawn) |  | inactive: -6.67%
32 | Cc1nc2ccccc2n1S(=O)(=O)c1ccc(Br)cc1 |  | inactive: 4.42%
33 | COc1ccc(C(C)=O)cc1COc1ccccc1[N+](=O)[O-] |  | inactive: 3.45%
34 | CCCc1cc(NCc2ccccn2)n2nc(C)c(-c3ccccc3)c2n1 | inconclusive: 28.2 µM [inhibitor, partial curve] | 
35 | N#C/C(=N\Nc1ccc(Cl)cc1)C(=O)c1ccccc1 |  | inactive: 1.02%
36 | Cc1ccc(C(=O)N2CCC(Cc3ccccc3)CC2)cc1[N+](=O)[O-] |  | inactive: 1.48%
37 | COC(=O)c1ccccc1-c1ccc(C=O)o1 | inconclusive: 28.2 µM [inhibitor, single point] | 
38 | Cc1nn(-c2ccccc2)c2nc(-c3ccco3)cc(C(=O)O)c12 | inconclusive: 39.8 µM [inhibitor, single point] | 
39 | Cc1cc(C(=O)NNC(=S)Nc2ccccc2)nn1C | active: 8.91 µM | 
40 | COc1ccc(N2C(=NC(C)=O)SC3CS(=O)(=O)CC32)cc1OC (stereo not drawn) | inconclusive: 39.8 µM [inhibitor, single point] | 
41 | COc1cc2c(cc1OC)-c1cc(N3CCc4ccccc43)nc(=O)n1CC2 | inconclusive: 28.2 µM [inhibitor, partial curve] | 
42 | COc1ccc(NC(=O)CC2Sc3ncnn3C2=O)cc1 (stereo not drawn) | active: 2 µM | 
43 | COc1cccc(/C=N/Nc2nn3cnnc3c3ccccc23)c1 | inconclusive: 7.08 µM [inhibitor, single point] | 
44 | O=C(O)CCc1ccc(-c2ccc(F)cc2)n1Cc1ccco1 | inconclusive: 25.1 µM [inhibitor, single point] | 
45 | C=C(C)COc1ccc(-c2[nH]ncc2-c2ccc(OC)c(OC)c2)c(O)c1 | inconclusive: 28.2 µM [inhibitor, single point] | 
46 | CC(=O)Oc1ccccc1C1=NN(C(=O)/C=C/c2ccccc2)C(c2ccccc2)C1 (stereo not drawn) | inconclusive: 39.8 µM [inhibitor, single point] | 
47 | CN1CCc2c(sc3nc(SCC(N)=O)n(-c4ccccc4)c(=O)c23)C1 | inconclusive: 25.1 µM [inhibitor, partial curve] | 
48 | Cc1ccc(S(=O)(=O)c2cc3c(=O)n4cc(C)ccc4nc3n(CC3CCCO3)c2=N)cc1 (stereo not drawn) | inconclusive: 25.1 µM [inhibitor, partial curve] | 
